Measurements taken from the supplement of paper PMC12217912.
This is one part of the list. Sequences were assembled here from the parent chain. Inactive controls read about 0.05.

B1: TEV protease; numbered along this chain (parent)
chain: MGESLFKGPRDYNPISSSICHLTNESDGHTTSLYGIGFGPFIITNKHLFRRNNGTLVVQSLHGVFKVKDTTTLQQHLVDGRDMIIIRMPKDFPPFPQKLKFREPQREERICLVTTNFQTKSMSSMVSDTSCTFPSGDGIFWKHWIQTKDGQCGSPLVSTRDGFIVGIHSASNFTNTNNYFTSVPKNFMELLTNQEAQQWVSGWRLNADSVLWGGHKVFMVKPEEPFQPVKEATQL

Variants of: B1
Assay: raw area under fraction-flipped curve 0-4 h after induction (AUC4h, not background-subtracted), DNA-recorder readout of cleavage of the substrate (dimensionless); higher = more cleavage of the substrate by the protease variant
Conditions: temperature: 34 °C; time window: 0-4 h after rhamnose induction
Description: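 In vivo DNA recorder in E. coli TOP10(DE3) ΔrhaA at 34 °C. Each TEVp single-site mutant (parent TEVp 0) is paired with a single-site variant of the 7-mer TEVs (canonical ENLYFQ|S). The substrate sits between flexible linkers in a Bxb1-sfGFP-TEVs-SsrA fusion, so cleavage stabilises Bxb1 and speeds flipping of a recombination array, read by NGS. The value is the raw area under the fraction-flipped curve over 0-4 h after rhamnose induction (AUC4h), with ≥20 reads per time point. It is not background-subtracted; inactive controls average about 0.047.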
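Note: Bxb1 expression induced with 0.2% (w/v) L-rhamnose at OD600 near 0.5, cultures sampled hourly, flipped fraction per protease–substrate barcode pair counted by paired-end Illumina sequencing.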

Variant | area with substrate CNLYFQS | area with substrate GNLYFQS | area with substrate INLYFQS | area with substrate MNLYFQS | area with substrate PNLYFQS | area with substrate TNLYFQS | area with substrate VNLYFQS | area with substrate WNLYFQS | area with substrate YNLYFQS | area with substrate FNLYFQS | area with substrate HNLYFQS | area with substrate KNLYFQS | area with substrate LNLYFQS | area with substrate NNLYFQS | area with substrate SNLYFQS | area with substrate RNLYFQS | area with substrate QNLYFQS
D69K | 0.0658 | 0.0588 | 0.0442 | 0.0614 | 0.0624 | 0.0645 | 0.0508 | 0.0511 | 0.0542 |  |  |  |  |  |  |  | 
L77C | 0.0689 |  | 0.0509 | 0.0797 |  | 0.0564 | 0.0472 | 0.0555 |  | 0.0472 | 0.0739 | 0.105 | 0.0638 | 0.0612 | 0.0595 |  | 
L77Q | 0.0736 |  | 0.0554 |  | 0.0765 | 0.0625 | 0.0554 |  | 0.0591 | 0.0558 | 0.0561 | 0.0637 | 0.0659 |  | 0.0671 |  | 
P93T | 0.0494 | 0.0734 |  |  | 0.0474 | 0.0636 | 0.0598 | 0.0635 |  |  | 0.0509 |  |  | 0.0703 |  |  | 
P93V | 0.0637 |  |  |  | 0.0609 | 0.0503 |  | 0.0522 |  |  | 0.0704 | 0.0591 | 0.0678 |  | 0.0629 |  | 
D82A | 0.0601 |  |  |  |  | 0.0567 |  | 0.0567 | 0.0574 |  | 0.0529 |  |  |  |  |  | 
D82P | 0.059 |  |  | 0.0561 |  | 0.0467 | 0.0559 | 0.0572 | 0.0632 |  |  |  |  |  | 0.0494 | 0.0534 | 
Q74M | 0.0597 |  | 0.0634 | 0.0565 |  | 0.0613 | 0.0655 | 0.0619 | 0.0843 | 0.0639 | 0.0583 | 0.0788 | 0.0629 | 0.0576 | 0.0727 |  | 0.0726
Q74Y | 0.0748 |  | 0.0628 | 0.0525 | 0.0711 |  | 0.0515 | 0.0521 |  |  |  |  |  | 0.0684 | 0.0696 |  | 
Q74K | 0.0734 | 0.0606 |  | 0.0523 |  | 0.0441 |  | 0.0578 | 0.0528 |  |  | 0.068 | 0.0592 |  | 0.0698 |  | 
Q74A | 0.0632 |  |  | 0.0265 |  |  | 0.0547 | 0.0694 | 0.0552 | 0.0589 | 0.0638 | 0.0703 | 0.0567 |  |  |  | 0.0715
K90N | 0.0595 | 0.0643 | 0.0649 |  | 0.0777 | 0.0703 | 0.0633 |  | 0.0673 | 0.0641 | 0.0653 |  | 0.0642 | 0.0752 | 0.0634 |  | 
K90S | 0.0909 |  | 0.0643 | 0.0846 | 0.0649 | 0.0632 | 0.042 | 0.0674 | 0.0453 | 0.0635 | 0.0649 | 0.0663 | 0.07 |  | 0.0687 |  | 
K90P | 0.0523 |  | 0.062 |  | 0.0537 | 0.0522 |  | 0.0842 | 0.0728 |  | 0.0633 | 0.0675 |  |  | 0.0901 |  | 
K90R | 0.0751 |  |  |  |  |  |  |  | 0.075 |  | 0.0527 |  |  |  |  |  | 0.0649
K68D | 0.097 |  | 0.0802 |  | 0.0842 |  |  | 0.0646 |  |  | 0.0617 | 0.0719 |  | 0.0573 | 0.0622 |  | 
K68P | 0.0655 |  | 0.0594 | 0.0487 | 0.0758 | 0.0786 |  | 0.0552 |  |  | 0.0675 |  |  |  | 0.0657 |  | 
K68G | 0.0635 |  |  |  | 0.0616 |  |  |  |  | 0.0788 | 0.0609 | 0.0662 |  | 0.0748 |  |  | 0.0733

Variant | area with substrate CNLYFQS | area with substrate GNLYFQS | area with substrate INLYFQS | area with substrate MNLYFQS | area with substrate PNLYFQS | area with substrate TNLYFQS | area with substrate VNLYFQS | area with substrate WNLYFQS | area with substrate YNLYFQS | area with substrate FNLYFQS | area with substrate HNLYFQS | area with substrate KNLYFQS | area with substrate LNLYFQS | area with substrate NNLYFQS | area with substrate SNLYFQS | area with substrate RNLYFQS | area with substrate QNLYFQS
K68W | 0.0573 |  | 0.0582 | 0.0657 | 0.059 | 0.0625 |  | 0.0761 | 0.0618 | 0.0539 | 0.0627 | 0.0788 |  |  | 0.0912 |  | 
K68H | 0.0708 |  | 0.0351 | 0.0749 | 0.054 |  |  | 0.0583 |  |  |  |  |  |  | 0.0693 |  | 0.0543
T71N | 0.0625 |  | 0.0727 |  |  | 0.0579 | 0.0646 | 0.0439 | 0.0552 | 0.0852 | 0.0539 |  |  | 0.0679 |  | 0.101 | 0.0625
T71G | 0.051 | 0.0405 | 0.0677 |  | 0.0631 | 0.0561 |  | 0.0715 | 0.0554 | 0.06 | 0.0532 | 0.0795 |  |  | 0.0486 |  | 
T71K | 0.0732 |  |  |  | 0.0337 |  |  | 0.0617 |  | 0.0654 |  |  |  |  |  |  | 
T71Q | 0.0783 | 0.0492 | 0.0599 |  | 0.0622 |  |  | 0.052 | 0.085 | 0.0608 | 0.0544 |  | 0.0639 | 0.0633 | 0.0773 |  | 
T71R | 0.0567 |  | 0.0668 |  | 0.0811 | 0.101 | 0.0596 | 0.0677 |  |  | 0.0611 | 0.0655 | 0.0595 |  | 0.0639 |  | 
P89M | 0.0583 |  | 0.0509 |  | 0.0573 | 0.0542 | 0.0358 | 0.047 | 0.0472 | 0.0403 | 0.0694 | 0.0662 | 0.0845 | 0.0451 |  |  | 
P89Q | 0.0089 | 0.0778 |  |  | 0.0661 | 0.0567 |  | 0.0531 | 0.0547 |  | 0.063 | 0.0715 | 0.0513 | 0.0692 |  |  | 
F92D | 0.0524 |  |  | 0.0714 | 0.0523 |  |  | 0.0476 |  |  |  | 0.0522 |  |  | 0.0496 |  | 
F92I | 0.0692 | 0.0587 |  |  | 0.0535 | 0.0646 |  | 0.0676 | 0.0605 |  | 0.0723 | 0.0704 | 0.0638 |  | 0.0592 |  | 
V67Y | 0.0653 |  |  | 0.0581 | 0.0377 |  |  |  | 0.0746 |  | 0.0605 | 0.0553 | 0.0778 |  | 0.0641 |  | 
V67N | 0.0444 | 0.068 | 0.0412 | 0.0677 | 0.0593 |  |  | 0.0486 | 0.0538 |  | 0.0252 |  |  |  | 0.0558 |  | 0.0478
V67K | 0.051 |  | 0.0359 | 0.0553 |  | 0.051 |  | 0.0572 |  | 0.0567 | 0.0488 | 0.0622 |  | 0.0551 | 0.0522 |  | 
V67P | 0.0313 |  | 0.0548 | 0.0378 | 0.0438 | 0.0452 |  |  | 0.0181 |  | 0.0386 | 0.0305 | 0.0242 |  | 0.0354 |  | 
T70P | 0.0608 | 0.0574 | 0.0541 | 0.0736 | 0.0662 |  | 0.0388 | 0.056 |  |  | 0.0604 | 0.054 | 0.02 | 0.0582 | 0.0587 |  | 
T70N | 0.0585 | 0.0505 |  | 0.0652 | 0.047 | 0.052 |  | 0.0527 | 0.0423 | 0.0475 | 0.0534 | 0.0505 |  |  | 0.0527 |  | 
T70K | 0.0527 |  |  |  | 0.0743 | 0.0585 |  | 0.0364 | 0.0559 |  | 0.126 |  | 0.0541 |  |  |  | 
